Patent US20040266790A1 (priority 2003, published 2004)

Assays:
[1] = reported by U.S. Pat. No. 5,616,587; method not described; cited from earlier work
[2] = pH of a saturated aqueous solution; conditions: no buffer

With `Cc1nc2n(c(=O)c1CCN1CCC(c3noc4cc(F)ccc34)CC1)CCCC2.Cc1nc2n(c(=O)c1CCN1CCC(c3noc4cc(F)ccc34)CC1)CCCC2.Cl.Cl.O.O.O.O.O` [risperidone monohydrochloride hph, Risperidone Hydrochloride Hemipentahydrate] as the molecule, how does the water content (after heating at 80° C. for only 1.5 hours) read?
The water content was 1.2%.

And the “water content after re-uptake of water” value (dehydrated sample re-exposed, expected, other experiments confirmed)?
The value was “about 8.9%”.

And the water content (dried in vacuo at 40° C. for five days)?
The water content was 0.55%.

With `Cc1nc2n(c(=O)c1CCN1CCC(c3noc4cc(F)ccc34)CC1)CCCC2` [Example 2, Risperidone Monohydrochloride] as the molecule, how does the water content (after exposure to air under ambient conditions for 3 weeks (initial 0.18%)) read?
Its water content is 0.39%.

With risperidone tartrate as the molecule, how does the room temperature solubility [1] read?
The room temperature solubility was “about 80 mg/ml”.

Which “inherent or native pH of a saturated aqueous solution” value [2] does the source give for `Cc1nc2n(c(=O)c1CCN1CCC(c3noc4cc(F)ccc34)CC1)CCCC2` [risperidone monohydrochloride, Risperidone Monohydrochloride] here?
The value was “about 5”.

Counter-ions that a name gives are not always drawn. Like-named read-outs stand apart in the source and are kept apart here.
